# Laboratory results as given in paper PMC5700166.
# Only a part is listed here, and it is no random draw. The list includes weakly bound sequences.
# What was measured:
# Test in all cases: protein-binding microarray (PBM)
# Details in all cases: PBM: ~300 nM protein, 6 mM HEPES pH 7.8, 80 mM KCl, 0.5 mM EDTA, 0.5 mM EGTA, 6% glycerol, 35 ng/ul poly-dIdC, 1% milk, 1 h, room temperature; Ap Aiptasia and Nv Nematostella (sea anemones) / Co Capsaspora / Aq Amphimedon (sponge) / Dm Drosophila / Hu human; RHD is the Rel homology domain; high values mean tight binding; most listed sequences are background and not binding sites; double strand, one strand shown
# GST-Ap-NF-kB RHD = target: T1, GST-Ap-NF-kB RHD (UniProt A0A913YAJ5)
# T1 sequence: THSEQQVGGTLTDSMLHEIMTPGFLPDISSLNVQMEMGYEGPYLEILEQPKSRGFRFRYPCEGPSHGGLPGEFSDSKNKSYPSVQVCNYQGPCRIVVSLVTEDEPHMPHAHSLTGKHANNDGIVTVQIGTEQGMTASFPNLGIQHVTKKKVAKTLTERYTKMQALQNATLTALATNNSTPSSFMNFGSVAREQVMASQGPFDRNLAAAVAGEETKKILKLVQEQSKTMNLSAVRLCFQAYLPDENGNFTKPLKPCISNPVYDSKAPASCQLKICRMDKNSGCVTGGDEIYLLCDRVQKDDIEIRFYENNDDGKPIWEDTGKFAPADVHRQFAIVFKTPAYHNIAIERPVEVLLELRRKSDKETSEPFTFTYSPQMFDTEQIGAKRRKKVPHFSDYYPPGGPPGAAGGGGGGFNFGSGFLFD
# [1] = target: T2, GST-Nv-NF-kB (Cys allele) (UniProt E5G601)
# T2 sequence: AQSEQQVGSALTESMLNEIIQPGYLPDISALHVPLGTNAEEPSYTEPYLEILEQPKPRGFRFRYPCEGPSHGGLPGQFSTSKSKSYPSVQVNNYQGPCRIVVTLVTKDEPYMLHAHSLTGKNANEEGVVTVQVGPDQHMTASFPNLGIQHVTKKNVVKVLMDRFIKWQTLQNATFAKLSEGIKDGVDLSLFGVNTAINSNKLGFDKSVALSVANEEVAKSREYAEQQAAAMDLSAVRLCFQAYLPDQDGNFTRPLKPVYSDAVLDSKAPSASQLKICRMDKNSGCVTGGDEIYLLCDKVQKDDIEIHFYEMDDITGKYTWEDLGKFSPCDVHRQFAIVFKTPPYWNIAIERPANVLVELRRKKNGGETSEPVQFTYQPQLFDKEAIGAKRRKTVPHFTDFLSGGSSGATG
# GST-Co-NF-kB = target: T3, GST-Co-NF-kB (UniProt F1ARL5)
# T3 sequence: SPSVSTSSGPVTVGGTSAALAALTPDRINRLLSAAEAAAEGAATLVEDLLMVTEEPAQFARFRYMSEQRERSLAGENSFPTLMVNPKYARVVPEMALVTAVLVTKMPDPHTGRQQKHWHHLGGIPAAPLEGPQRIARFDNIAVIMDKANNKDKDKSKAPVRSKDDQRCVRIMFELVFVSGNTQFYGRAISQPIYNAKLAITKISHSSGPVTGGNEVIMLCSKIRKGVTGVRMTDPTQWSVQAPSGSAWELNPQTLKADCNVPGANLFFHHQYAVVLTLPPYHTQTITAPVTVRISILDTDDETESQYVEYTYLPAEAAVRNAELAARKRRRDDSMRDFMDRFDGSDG
# GST-Dm-Relish = target: T4, GST-Dm-Relish (UniProt Q94527)
# T4 sequence: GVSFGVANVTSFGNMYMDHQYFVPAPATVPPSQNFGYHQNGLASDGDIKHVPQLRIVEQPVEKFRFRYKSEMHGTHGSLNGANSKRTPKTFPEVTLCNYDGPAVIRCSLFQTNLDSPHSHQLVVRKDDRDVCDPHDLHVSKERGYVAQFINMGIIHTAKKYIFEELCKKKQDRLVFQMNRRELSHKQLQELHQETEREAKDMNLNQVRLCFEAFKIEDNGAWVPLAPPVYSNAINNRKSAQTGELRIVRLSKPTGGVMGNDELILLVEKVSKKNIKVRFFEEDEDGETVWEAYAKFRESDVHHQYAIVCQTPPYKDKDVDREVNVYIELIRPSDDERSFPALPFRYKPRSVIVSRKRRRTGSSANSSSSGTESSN
# GST-Aq-NF-kB = target: T5, GST-Aq-NF-kB (UniProt A9Y5G7)
# T5 sequence: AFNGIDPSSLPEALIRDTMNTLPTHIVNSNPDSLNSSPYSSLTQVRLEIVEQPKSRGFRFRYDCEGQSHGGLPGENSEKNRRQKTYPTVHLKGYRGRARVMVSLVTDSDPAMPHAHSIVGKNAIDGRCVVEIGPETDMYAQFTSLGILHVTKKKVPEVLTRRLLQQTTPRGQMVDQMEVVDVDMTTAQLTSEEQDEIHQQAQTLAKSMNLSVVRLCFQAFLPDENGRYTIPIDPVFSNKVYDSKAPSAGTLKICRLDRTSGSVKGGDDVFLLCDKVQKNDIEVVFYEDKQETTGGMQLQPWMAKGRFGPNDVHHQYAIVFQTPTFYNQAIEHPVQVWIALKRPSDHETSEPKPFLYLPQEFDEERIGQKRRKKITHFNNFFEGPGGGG
sequence,measurement,setting,value
CCGATTAACATCACACAAACGTTTGATGTTAATCGGGTCTTGATTCGCTTGACGCTGCTG,binding signal,GST-Ap-NF-kB RHD,-1.16 z-score
same,binding signal,[1],-0.528 z-score
same,binding signal,GST-Co-NF-kB,-1.72 z-score
same,binding signal,GST-Dm-Relish,0.424 z-score
same,binding signal,GST-Aq-NF-kB,-0.546 z-score
CCGATTAACATCAGGAAAATTCATGATGTTAATCGGGTCTTGATTCGCTTGACGCTGCTG,binding signal,GST-Ap-NF-kB RHD,-0.137 z-score
same,binding signal,[1],-0.093 z-score
same,binding signal,GST-Co-NF-kB,-0.409 z-score
same,binding signal,GST-Dm-Relish,0.0806 z-score
same,binding signal,GST-Aq-NF-kB,0.548 z-score
CCGATTAACATCAGGAACATTCCTGATGTTAATCGGGTCTTGATTCGCTTGACGCTGCTG,binding signal,GST-Ap-NF-kB RHD,-0.737 z-score
same,binding signal,[1],-0.0817 z-score
same,binding signal,GST-Co-NF-kB,-0.784 z-score
same,binding signal,GST-Dm-Relish,-0.256 z-score
same,binding signal,GST-Aq-NF-kB,0.404 z-score
CCGATTAACATCATTCACTTCTATGATGTTAATCGGGTCTTGATTCGCTTGACGCTGCTG,binding signal,GST-Ap-NF-kB RHD,-0.57 z-score
same,binding signal,[1],0.0891 z-score
same,binding signal,GST-Co-NF-kB,0.105 z-score
same,binding signal,GST-Dm-Relish,-0.25 z-score
same,binding signal,GST-Aq-NF-kB,-0.532 z-score
CCGATTAACATCAGAGGAAGTGATGATGTTAATCGGGTCTTGATTCGCTTGACGCTGCTG,binding signal,GST-Ap-NF-kB RHD,-0.126 z-score
same,binding signal,[1],0.337 z-score
same,binding signal,GST-Co-NF-kB,0.641 z-score
same,binding signal,GST-Dm-Relish,-0.353 z-score
same,binding signal,GST-Aq-NF-kB,-0.338 z-score
CCGATTAACATCATATACTGGAATGATGTTAATCGGGTCTTGATTCGCTTGACGCTGCTG,binding signal,GST-Ap-NF-kB RHD,-0.373 z-score
same,binding signal,[1],-0.657 z-score
same,binding signal,GST-Co-NF-kB,0.778 z-score
same,binding signal,GST-Dm-Relish,-0.0158 z-score
same,binding signal,GST-Aq-NF-kB,0.0953 z-score
CCGATTAACATCAGAAATGACCTTGATGTTAATCGGGTCTTGATTCGCTTGACGCTGCTG,binding signal,GST-Ap-NF-kB RHD,-0.548 z-score
same,binding signal,[1],-0.0831 z-score
same,binding signal,GST-Co-NF-kB,-0.305 z-score
same,binding signal,GST-Dm-Relish,-0.0329 z-score
same,binding signal,GST-Aq-NF-kB,-0.0485 z-score
CCGATTAACATCATAAGTCCGAATGATGTTAATCGGGTCTTGATTCGCTTGACGCTGCTG,binding signal,GST-Ap-NF-kB RHD,-0.323 z-score
same,binding signal,[1],-0.649 z-score
same,binding signal,GST-Co-NF-kB,-0.289 z-score
same,binding signal,GST-Dm-Relish,-0.525 z-score
same,binding signal,GST-Aq-NF-kB,-0.146 z-score
CCGATTAACATCACGTGCTAGCCTGATGTTAATCGGGTCTTGATTCGCTTGACGCTGCTG,binding signal,GST-Ap-NF-kB RHD,-0.329 z-score
same,binding signal,[1],-0.378 z-score
same,binding signal,GST-Co-NF-kB,-1.35 z-score
same,binding signal,GST-Dm-Relish,-0.835 z-score
same,binding signal,GST-Aq-NF-kB,-0.455 z-score
CCGATTAACATCAGCTGATAGGTTGATGTTAATCGGGTCTTGATTCGCTTGACGCTGCTG,binding signal,GST-Ap-NF-kB RHD,-0.363 z-score
same,binding signal,[1],-0.933 z-score
same,binding signal,GST-Co-NF-kB,-1.24 z-score
same,binding signal,GST-Dm-Relish,-0.579 z-score
same,binding signal,GST-Aq-NF-kB,-0.453 z-score
CCGATTAACATCAGCATATGCAGTGATGTTAATCGGGTCTTGATTCGCTTGACGCTGCTG,binding signal,GST-Ap-NF-kB RHD,-0.199 z-score
same,binding signal,[1],0.214 z-score
same,binding signal,GST-Co-NF-kB,-1.21 z-score
same,binding signal,GST-Dm-Relish,-0.412 z-score
same,binding signal,GST-Aq-NF-kB,-0.354 z-score
CCGATTAACATCAAGGAATTCCATGATGTTAATCGGGTCTTGATTCGCTTGACGCTGCTG,binding signal,GST-Ap-NF-kB RHD,0.382 z-score
same,binding signal,[1],-0.0831 z-score
same,binding signal,GST-Co-NF-kB,0.125 z-score
same,binding signal,GST-Dm-Relish,2.32 z-score
same,binding signal,GST-Aq-NF-kB,1.54 z-score
CCGATTAACATCACGAAATTCCGTGATGTTAATCGGGTCTTGATTCGCTTGACGCTGCTG,binding signal,GST-Ap-NF-kB RHD,-0.606 z-score
same,binding signal,[1],0.502 z-score
same,binding signal,GST-Co-NF-kB,-0.591 z-score
same,binding signal,GST-Dm-Relish,0.797 z-score
same,binding signal,GST-Aq-NF-kB,0.167 z-score
